About 6,900 (2%) of roughly 340,000 compounds were called active. Cut-off read from the data, not from the text of the source: active = inhibition above about 30%; inactive = below that, where a call was filed. This is a selection; strong and weak results do not stand in their true shares. Where no call is shown, the source filed none.

Sequence of UniProt P14416 (P14416 whole entry, looked up): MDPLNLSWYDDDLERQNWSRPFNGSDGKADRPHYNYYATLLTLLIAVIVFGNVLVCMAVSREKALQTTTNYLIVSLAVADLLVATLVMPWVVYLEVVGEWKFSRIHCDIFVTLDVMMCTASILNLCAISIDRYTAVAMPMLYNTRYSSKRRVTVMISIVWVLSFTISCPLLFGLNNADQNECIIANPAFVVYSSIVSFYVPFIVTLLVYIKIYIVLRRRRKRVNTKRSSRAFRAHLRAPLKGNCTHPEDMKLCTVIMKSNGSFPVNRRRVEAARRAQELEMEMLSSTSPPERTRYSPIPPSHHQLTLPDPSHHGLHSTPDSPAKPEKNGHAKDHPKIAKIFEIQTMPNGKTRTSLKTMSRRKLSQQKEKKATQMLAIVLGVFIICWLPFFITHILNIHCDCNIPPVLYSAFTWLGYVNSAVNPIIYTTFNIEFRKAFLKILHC

The experiment addresses D(2) dopamine receptor (Homo sapiens) (UniProt P14416). The experiment is described as follows: HTS Assay for Allosteric Antagonists of the Human D2 Dopamine Receptor: Primary Screen for Antagonists. Note: 0% is about no effect. The settings on record: HEK293 TREx D2 cells, calcium flux, dopamine EC80; at 10 µM; stronger effect = higher value. The gist of the method:
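HEK293 T-REx D2 cells, tet-induced, calcium dye no-wash. Cpd pintool add, 180 s kinetic, then EC80 DA, 180 s kinetic. Ca flux read.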
For `Cc1onc(-c2c(Cl)cccc2Cl)c1C(=O)NCCCN1CCOCC1`, the inhibition was active: 43.5%.

For the molecule `CC(C)(C)C(=O)Nc1cccc(C(=O)OCc2cc(=O)n3nc(C4CC4)sc3n2)c1`, the inhibition was -14.3%.

As to `COC(=O)[C@H](C)NC(=O)NC1CCN(Cc2ccccc2)CC1`, the inhibition was active: 50.4%.

In the case of `Cc1ccccc1NC(=O)CCNC(=O)Cn1ccc2ccccc2c1=O`, the inhibition was found to be 15.2%.

Consider `CCOC(=O)c1ccc(NC(=O)CC2C(=O)N(c3ccc(C)cc3)C(=O)N2C2CCCC2)cc1` (configuration not stated), for which the inhibition is 1.43%.

Consider `COc1cc(NC(=O)c2cc3ccc4cccnc4c3[nH]2)cc(OC)c1OC`, for which the inhibition is -2.93%.

Turning to `COc1ccccc1N1CCN(S(=O)(=O)CCNC(=O)C2CC(=O)N(c3ccccc3)C2)CC1` (configuration not stated), the inhibition came out at 16.3%.

Consider `CCOC(=O)c1c(C)[nH]c(C)c1S(=O)(=O)N1CCCC(C(=O)Nc2cccc(C)n2)C1` (configuration not stated), for which the inhibition was -1.87%.

For `CCOc1ccc(NC(=O)CSC2=Nc3ccccc3C3=NC(Cc4ccccc4)C(=O)N23)cc1` (configuration not stated), the inhibition was found to be 3.77%.

With `COc1ccc(-c2nc3sc(CCNC(=O)C(=O)Nc4ccc(C)c(F)c4)c(C)n3n2)cc1`, the inhibition was -14.1%.

Consider `CCCn1nc(NC(=O)c2cccc(Cl)c2)c2cc3cccc(C)c3nc21`, for which the inhibition is -1.05%.

Take `CCc1ccc(S(=O)(=O)c2cn(C)c3cc(F)c(F)cc3c2=O)cc1`: the inhibition is 1.11%.

In the case of `COc1ccccc1CN1CCN(C2CCN(C(=O)Nc3ccccc3)CC2)C(=O)C1=O`, the inhibition is -15.5%.

Regarding `Cc1ccc(NC(=O)Cn2c(-c3nonc3N)nc3ccccc32)cc1C`, the inhibition turned out to be 4.28%.

Consider `CCOc1ccccc1Nc1nnc(-c2cc3cc(Cl)ccc3oc2=O)s1`, for which the inhibition was -3.2%.

With `O=C(CNC(=O)c1ccccc1F)OCc1cc(=O)n2nc(C3CC3)sc2n1`, the inhibition was found to be 0.573%.

For the molecule `COc1cc(OC)cc(C(=O)Nc2ccc3c(c2)OCCO3)c1`, the inhibition is -13.9%.

As to `CCC(=O)N1CCc2cc(CNC(=O)c3ccc(C#N)cc3)ccc21`, the inhibition worked out at 22.7%.

As for `CC(NC(=O)c1cc2ccccc2o1)c1ccccc1` (configuration not stated), the inhibition turned out to be 10.8%.

Regarding `CCOC(=O)c1cccc(NC(=O)CSc2nc3cc4ccccc4cc3[nH]2)c1`, the inhibition amounted to 1.7%.

As to `CC(C)c1cnc2c(c1SCC(=O)O)c(=O)n(C)c(=O)n2C`, the inhibition was 4.78%.

For the molecule `CCC(C(=O)NCc1cccc(Br)c1)n1nc(C)c2c(C)n(-c3ccccc3)nc2c1=O` (configuration not stated), the inhibition was -8.02%.

Turning to `O=S(=O)(Nc1cccc(F)c1)c1ccc2[nH]c3c(c2c1)CCCCC3`, the inhibition was -0.921%.

Regarding `CC(=O)Nc1ccc(NC(=O)c2cnn(-c3ccccc3)c2C2CCN(C(=O)OC(C)(C)C)CC2)cc1`, the inhibition was 5.4%.

For `COc1ccccc1CCNC(=O)C(=O)NCC(c1ccco1)S(=O)(=O)c1ccccc1` (configuration not stated), the inhibition was -7.75%.

Consider `CCOC(=O)c1c(C)[nH]c(C)c1S(=O)(=O)NCC1CCN(Cc2ccc(C)cc2)CC1`, for which the inhibition was active: 86.5%.

On to `Cc1cccc(NC(=O)CSc2nc3ccccc3c3nc(CCc4c(C)n[nH]c4C)nn23)c1`, for which the inhibition came out at 23.9%.

`CC(CCc1ccc(O)cc1)N(C)CCc1ccccc1` (configuration not stated): the inhibition is active: 90.7%.

In the case of `COc1ccc(Nc2nc3ccccc3nc2NS(=O)(=O)c2ccc(Cl)cc2)cc1OC`, the inhibition is -0.036%.

`Cc1ccccc1OCc1nnc(SCc2cc(=O)c3ccc(C)c(C)c3[nH]2)n1C`: the inhibition was 7.13%.

As to `COc1ccccc1-c1nc(S(=O)(=O)c2ccccc2)c(N2CCC(C)CC2)o1`, the inhibition is -17.4%.

Turning to `Cc1ccc(S(=O)(=O)NCCc2csc3nc(-c4ccccc4F)nn23)cc1C`, the inhibition came to 0.49%.

`COC(=O)c1c(SCC(=O)Nc2cccc(Cl)c2C)[nH]c2ccccc2c1=O`: the inhibition came to 3.78%.

Regarding `CN(C(=O)c1c2c(nc3ccccc13)C(=O)N(C1CCCCC1)C2)c1ccc(F)cc1`, the inhibition is 14.8%.

Regarding `COc1cccc(-c2nc(SCc3ccc(C)cc3)n3[nH]c(=O)cc3n2)c1`, the inhibition was -5.63%.

In the case of `CC(C)(C)OC(=O)N1CCC(c2c(C(=O)N3CCC(c4ccccc4)C3)cnn2-c2ccc(Cl)cc2)CC1` (configuration not stated), the inhibition was -4.47%.

For the molecule `O=[N+]([O-])c1ccc(S(=O)(=O)N2CCn3cccc3C2c2ccccc2F)cc1` (configuration not stated), the inhibition is -0.353%.

On to `CCOC(=O)c1c(C)oc2ncnc(N3CCN(c4ccccc4)CC3)c12`, for which the inhibition is -4.7%.

With `Cc1ccc(C)c(N2CCN(c3nc4ccc(Cl)cc4n4cnnc34)CC2)c1`, the inhibition amounted to 6.98%.

Take `CCOC(=O)CC(NC(=O)c1cc2c(=O)n3cccc(C)c3nc2s1)c1ccc(OCC(C)C)c(OC)c1` (configuration not stated): the inhibition was found to be 5.91%.

On to `COc1ccc(-c2c(C)nn3c(-c4ccccc4)cc(-c4ccccc4)nc23)cc1OC`, for which the inhibition came out at 14.1%.

Turning to `COc1ccc(CCN2C(=O)c3[nH]nc(-c4ccccc4O)c3C2c2ccc(O)c(OC)c2)cc1` (configuration not stated), the inhibition was determined as 11%.

As for `COC(=O)c1ccc(NC(=O)CCNS(=O)(=O)c2cccc3nsnc23)cc1`, the inhibition was found to be 2.95%.

Regarding `O=c1cc(-c2c(F)c(F)c(F)c(F)c2F)oc2c(F)c(F)c(F)c(F)c12`, the inhibition was active: 56.5%.

In the case of `O=C(CSc1nc2c([nH]c3ccccc32)c(=O)n1-c1ccc(F)cc1)N1CCCc2ccccc21`, the inhibition came to 4.7%.

`CCOC(=O)Cn1c(=O)n(C2CCCCC2)c2nc(-c3ccccc3Cl)nc(C(N)=O)c21`: the inhibition stood at 10.2%.

Turning to `COc1cc(NC(=O)c2cc(C3CC3)nc3c2c(C)nn3-c2ccc(C)cc2)cc(OC)c1`, the inhibition stood at 3.75%.

For `Cc1cccc(C)c1OCc1nc2c3cnn(-c4ccccc4Br)c3ncn2n1`, the inhibition was -9.37%.

Turning to `CC(O)CNCCOc1ccccc1-c1ccccc1` (configuration not stated), the inhibition is active: 57.8%.

For `Cc1cccc(CNC(=O)c2ccc3nc(-c4ccccc4)c(-c4ccccc4)nc3c2)c1`, the inhibition was -8.66%.

Turning to `Cc1c(C(=O)NCc2ccccc2Cl)cccc1-n1cnc2cccnc21`, the inhibition was 1.74%.

For `CCC1(c2ccccc2)C(=O)NCNC1=O`, the inhibition was active: 33.1%.

As for `Cc1cccc(NC(=O)Cn2c(=O)n(CCc3ccccc3)c(=O)c3sc4ccccc4c32)c1`, the inhibition is -5.02%.

Consider `O=C(Cn1c(=O)n(-c2ccccc2)c(=O)c2c3c(sc21)CCCC3)Nc1cccc(F)c1`, for which the inhibition is -8.1%.

As to `COc1cccc(Cc2nc3ccccc3nc2SCC(=O)Nc2ccccc2F)c1`, the inhibition was -5.49%.

As to `CN(C)c1ccc(CNC(=O)c2ccc(NC(=O)c3nsc4ccccc34)cc2)cc1`, the inhibition was found to be 2.82%.

`CCn1c(=O)cc(OCC(=O)Nc2cc(OC)c(OC)c(OC)c2)c2ccccc21`: the inhibition was -2.86%.

For the molecule `COCCNC(=O)CSc1nc2ccccc2nc1Cc1ccc(C)cc1`, the inhibition is -16.7%.

With `CCc1ccc(S(=O)(=O)c2c(C(=O)c3ccc(C)c(C)c3)cnc3ccccc23)cc1`, the inhibition was -0.554%.

Regarding `CCOc1ccc(CNC(=O)c2ccc3nc(CC)c(CC)nc3c2)cc1OC`, the inhibition was 19.8%.

`COc1cccc(N2CCN(c3ccc4nnc(CCC(=O)O)n4n3)CC2)c1`: the inhibition came to 10.9%.

As for `Cn1cnc(S(=O)(=O)N2CCCC(C(=O)Nc3cccc(C#N)c3)C2)c1` (configuration not stated), the inhibition is 10.2%.

For the molecule `Cc1ccc(CNCc2c(C(=O)O)c(C)n(Cc3ccc(C)cc3)c2C)cc1`, the inhibition came out at 13.6%.

For `O=C(Nc1c(C(=O)c2ccc(F)cc2)oc2ccccc12)c1cc(-c2ccccc2)on1`, the inhibition is 7.19%.

On to `COc1ccc(NC(=O)N(Cc2nnc3n2CCCCC3)c2ccc(OC)c(Cl)c2)cc1`, for which the inhibition was -18.2%.

With `CC(C)(C)NC(=O)c1ccc2c(c1)N(CC(=O)NC1CCCC1)C(=O)C(C)(C)O2`, the inhibition was active: 53.1%.

For the molecule `CCN(CC)S(=O)(=O)c1nnc(NC(=O)COc2cccc(C)c2)s1`, the inhibition is -17.9%.

As for `Cc1ccc(C)c(N(C)C(=O)C2CCN(c3ncnc4c3nc3n4CCCCC3)CC2)c1`, the inhibition is 6.68%.

Consider `COc1ccc(CCNC(=O)CCCCCn2c(SCC(N)=O)nc3cc4c(cc3c2=O)OCO4)cc1OC`, for which the inhibition was -17.6%.

Turning to `CCN(CC)S(=O)(=O)c1ccc2c(c1)N(CC(=O)Nc1ccc(F)cc1)C(=O)CO2`, the inhibition came out at 16.1%.

Consider `Cc1ccc(S(=O)(=O)N2CCCc3cc(NC(=O)c4ccccc4Cl)ccc32)cc1`, for which the inhibition was -2.8%.

For `O=C(c1ccc(Oc2ccccc2)cc1)c1nc2c(n1O)CCCC2`, the inhibition is active: 31.1%.

As to `CCOC(=O)CC(NC(=O)Cn1nnc(-c2ccc(C(F)(F)F)cc2)n1)c1ccc(C)cc1` (configuration not stated), the inhibition was 10.3%.

Take `CCCOc1cccc(C(=O)NCCNC(=O)c2ccco2)c1`: the inhibition was active: 57%.

With `O=C(NCC(c1cccnc1)N1CCN(Cc2ccccc2)CC1)C(=O)Nc1cccc(F)c1` (configuration not stated), the inhibition stood at 21.5%.

On to `Cc1ccc(Cn2c(=O)n(CC3CCC(C(=O)N4CCOCC4)CC3)c(=O)c3sccc32)cc1` (configuration not stated), for which the inhibition stood at 1.48%.

As to `CNC(=O)c1nnc(Cc2ccc(F)cc2)o1`, the inhibition was active: 58.1%.

Consider `COc1cccc(-c2nc3c(C#N)c[nH]n3c2NC2CCCCC2)c1OC`, for which the inhibition came out at 8.9%.

Regarding `CC(NC(=O)c1sc2ncccc2c1-n1cccc1)c1ccccc1` (configuration not stated), the inhibition was 5.12%.

Turning to `CCSc1nnc(NC(=O)c2cc(C)on2)s1`, the inhibition is active: 55.6%.

On to `CCC(C)(C)NC(=O)CN(C(=O)CCC(=O)Nc1nccs1)c1ccccc1C`, for which the inhibition is active: 39%.

On to `COC(=O)c1cc2oc3ccccc3c2n1Cc1c(F)cccc1Cl`, for which the inhibition was 7.26%.

Turning to `COc1ccc2nc(N3CCN(C(=O)C4CC4)CC3)sc2c1`, the inhibition is -18.4%.

As to `Cc1ccc(C(=O)NCCc2csc(C)n2)cc1`, the inhibition was active: 42.7%.

For `CCc1cccc(NC(=O)CN2CCCN(Cc3cccc(C)c3)S2(=O)=O)c1`, the inhibition came to 14%.

Consider `Cc1ccc(Cl)cc1N(C)C(=O)c1cnc(N2CCOCC2)c2ccccc12`, for which the inhibition is -12.7%.

On to `COc1ccc(N2CCN(C(=O)c3ccc4nc(N5CCC(C)CC5)sc4c3)CC2)cc1`, for which the inhibition was -7.56%.

Consider `Cc1ccc2occ(CC(=O)N(Cc3ccc(N(C)C)cc3)C3CCS(=O)(=O)C3)c2c1` (configuration not stated), for which the inhibition is -10.1%.

For the molecule `CCOc1ccc(CNC(=O)CCC(=O)N2CCSc3ccccc32)cc1`, the inhibition stood at 6.81%.

Regarding `OC(CSc1c(Cl)cccc1Cl)CN1CCN(c2ccccc2F)CC1` (configuration not stated), the inhibition was active: 65.3%.

With `O=C(NCCS(=O)(=O)N1CCN(c2ccc(F)cc2)CC1)c1cc(=O)c2ccccc2o1`, the inhibition was determined as 23.8%.

`COc1ccccc1N1CCN(S(=O)(=O)c2cc3[nH]c(=O)c(=O)[nH]c3cc2C)CC1`: the inhibition came out at 12.3%.

Regarding `CSc1cccc(Nc2cc(C(=O)NCCCN(Cc3ccccc3)C(C)C)c3ccccc3n2)c1`, the inhibition came to 13.6%.

Consider `Cc1ccc(CCNc2ncnc3onc(C)c23)cc1`, for which the inhibition was -4.99%.

`Cc1ccc(C)c(NC(=O)C(Cc2ccccc2)N2Cc3ccccc3C2=O)c1` (configuration not stated): the inhibition worked out at 21.7%.

Consider `Cc1ccccc1Nc1cc(C(=O)NC2CCCCC2)c2ccccc2n1`, for which the inhibition was -8.28%.

For `Fc1ccc(Nc2ncnc3c2nc2n3CCCC2)cc1`, the inhibition was -10.4%.

The term inhibition denotes the drop in the measured response relative to a control, in per cent.

These data come from PubChem BioAssay AID485344 (National Center for Advancing Translational Sciences (NCATS), 2010).
